Assay results taken from the supplement of paper PMC8728848.
The list shows a part of the results.

Columns and labels:
Experiment in all cases: glycan array binding signal (z-score within array); higher = stronger binding
Conditions in all cases: glycan notation: IUPAC condensed, linker removed
Fuc(a1-2)Gal = target: Fuc(a1-2)Gal
Outline: (§1)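 Glycan array data came from 3228 arrays in the Consortium for Functional Glycomics database, and only arrays with an available protein sequence were kept. Glycan names were put into IUPAC-condensed notation, and columns mapping to the same glycan were averaged. The binding signal is a within-array Z-score, averaged across arrays of one protein sequence run at different concentrations or buffers and across linkers. A negative Z-score can be read as non-binding.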

Fuc(a1-2)Gal(b1-3)GalNAc = target: Fuc(a1-2)Gal(b1-3)GalNAc
Outline: as §1

[1] = target: Fuc(a1-2)Gal(b1-3)GalNAc(b1-3)Gal
Outline: as §1

[2] = target: Fuc(a1-2)Gal(b1-3)GalNAc(b1-3)Gal(a1-4)Gal(b1-4)Glc
Outline: as §1

[3] = target: Fuc(a1-2)Gal(b1-3)GalNAc(b1-4)[Neu5Ac(a2-3)]Gal(b1-4)Glc
Outline: as §1

Fuc(a1-2)Gal(b1-3)GlcNAc = target: Fuc(a1-2)Gal(b1-3)GlcNAc
Outline: as §1

[4] = target: Fuc(a1-2)Gal(b1-3)GlcNAc(b1-2)Man(a1-3)[Fuc(a1-2)Gal(b1-3)GlcNAc(b1-2)Man(a1-6)]Man(b1-4)GlcNAc(b1-4)GlcNAc
Outline: as §1

[5] = target: Fuc(a1-2)Gal(b1-3)GlcNAc(b1-3)Gal(b1-4)Glc
Outline: as §1

[6] = target: Fuc(a1-2)Gal(b1-3)GlcNAc(b1-3)[Gal(b1-4)[Fuc(a1-3)]GlcNAc(b1-6)]Gal(b1-4)Glc
Outline: as §1

[7] = target: Fuc(a1-2)Gal(b1-3)[Fuc(a1-4)]GlcNAc
Outline: as §1

[8] = target: Fuc(a1-2)Gal(b1-3)[Fuc(a1-4)]GlcNAc(b1-2)Man(a1-3)[Fuc(a1-2)Gal(b1-3)[Fuc(a1-4)]GlcNAc(b1-2)Man(a1-6)]Man(b1-4)GlcNAc(b1-4)GlcNAc
Outline: as §1

Fuc(a1-2)Gal(b1-4)Glc = target: Fuc(a1-2)Gal(b1-4)Glc
Outline: as §1

Fuc(a1-2)Gal(b1-4)Glc6S = target: Fuc(a1-2)Gal(b1-4)Glc6S
Outline: as §1

Fuc(a1-2)Gal(b1-4)GlcNAc = target: Fuc(a1-2)Gal(b1-4)GlcNAc
Outline: as §1

[9] = target: Fuc(a1-2)Gal(b1-4)GlcNAc(b1-2)Man(a1-3)[Fuc(a1-2)Gal(b1-4)GlcNAc(b1-2)Man(a1-6)]Man(b1-4)GlcNAc(b1-4)GlcNAc
Outline: as §1

[10] = target: Fuc(a1-2)Gal(b1-4)GlcNAc(b1-3)Gal(b1-4)GlcNAc
Outline: as §1

[11] = target: Fuc(a1-2)Gal(b1-4)GlcNAc(b1-3)Gal(b1-4)GlcNAc(b1-3)Gal(b1-4)GlcNAc
Outline: as §1

[12] = target: Fuc(a1-2)Gal(b1-4)GlcNAc6S
Outline: as §1

[13] = target: Fuc(a1-2)Gal(b1-4)[Fuc(a1-3)]GlcNAc
Outline: as §1

[14] = target: Fuc(a1-2)Gal(b1-4)[Fuc(a1-3)]GlcNAc(b1-2)Man(a1-3)[Fuc(a1-2)Gal(b1-4)[Fuc(a1-3)]GlcNAc(b1-2)Man(a1-6)]Man(b1-4)GlcNAc(b1-4)GlcNAc
Outline: as §1

[15] = target: Fuc(a1-2)Gal(b1-4)[Fuc(a1-3)]GlcNAc(b1-3)Gal(b1-4)[Fuc(a1-3)]GlcNAc
Outline: as §1

[16] = target: Fuc(a1-2)Gal(b1-4)[Fuc(a1-3)]GlcNAc(b1-3)Gal(b1-4)[Fuc(a1-3)]GlcNAc(b1-3)Gal(b1-4)[Fuc(a1-3)]GlcNAc
Outline: as §1

Fuc(a1-2)Gal6S(b1-4)Glc = target: Fuc(a1-2)Gal6S(b1-4)Glc
Outline: as §1

[17] = target: Fuc(a1-2)Gal6S(b1-4)Glc6S
Outline: as §1

[18] = target: Fuc(a1-2)Gal6S(b1-4)GlcNAc
Outline: as §1

Fuc(a1-2)[Gal(a1-3)]Gal = target: Fuc(a1-2)[Gal(a1-3)]Gal
Outline: as §1

[19] = target: Fuc(a1-2)[Gal(a1-3)]Gal(b1-3)GlcNAc
Outline: as §1

[20] = target: Fuc(a1-2)[Gal(a1-3)]Gal(b1-3)GlcNAc(b1-2)Man(a1-3)[Fuc(a1-2)[Gal(a1-3)]Gal(b1-3)GlcNAc(b1-2)Man(a1-6)]Man(b1-4)GlcNAc(b1-4)GlcNAc
Outline: as §1

[21] = target: Fuc(a1-2)[Gal(a1-3)]Gal(b1-4)Glc
Outline: as §1

[22] = target: Fuc(a1-2)[Gal(a1-3)]Gal(b1-4)GlcNAc
Outline: as §1

B1: LcH (Lens culinaris), P02870 (protein)
chain: TETTSFSITKFSPDQQNLIFQGDGYTGKEGLTLTKVSKETGGRALYSTPIHIWDRDTVNVANFVTNGSQVFRESPNGYNVADGFTFFIAPVDTKPQTGGGYLGVFYNGKEYDKTSQTVAVEFDTFYNAAWDPSNKERHIGIDVNSIKSVNTKSWNLQNGVTSYTLNEVVPLKDVVPEWVRIGFSATTGAEFAAQEVHSWSFNSQLGHTSKS
glycan array binding signal (z-score) (Fuc(a1-2)Gal): -0.112
glycan array binding signal (z-score) (Fuc(a1-2)Gal(b1-3)GalNAc): -0.119
glycan array binding signal (z-score) [1]: -0.056
glycan array binding signal (z-score) [2]: -0.126
glycan array binding signal (z-score) [3]: -0.124
glycan array binding signal (z-score) (Fuc(a1-2)Gal(b1-3)GlcNAc): -0.101
glycan array binding signal (z-score) [4]: -0.093
glycan array binding signal (z-score) [5]: -0.117
glycan array binding signal (z-score) [6]: -0.124
glycan array binding signal (z-score) [7]: -0.119
glycan array binding signal (z-score) [8]: -0.091
glycan array binding signal (z-score) (Fuc(a1-2)Gal(b1-4)Glc): -0.111
glycan array binding signal (z-score) (Fuc(a1-2)Gal(b1-4)Glc6S): -0.04
glycan array binding signal (z-score) (Fuc(a1-2)Gal(b1-4)GlcNAc): -0.142
glycan array binding signal (z-score) [9]: -0.109
glycan array binding signal (z-score) [10]: -0.141
glycan array binding signal (z-score) [11]: -0.089
glycan array binding signal (z-score) [12]: -0.104
glycan array binding signal (z-score) [13]: -0.149
glycan array binding signal (z-score) [14]: -0.075
glycan array binding signal (z-score) [15]: -0.122
glycan array binding signal (z-score) [16]: -0.059
glycan array binding signal (z-score) (Fuc(a1-2)Gal6S(b1-4)Glc): -0.128
glycan array binding signal (z-score) [17]: -0.104
glycan array binding signal (z-score) [18]: -0.126
glycan array binding signal (z-score) (Fuc(a1-2)[Gal(a1-3)]Gal): -0.122
glycan array binding signal (z-score) [19]: -0.136
glycan array binding signal (z-score) [20]: -0.096
glycan array binding signal (z-score) [21]: -0.106
glycan array binding signal (z-score) [22]: -0.099
